In all, about 420,000 compounds went through this assay and about 50,000 (12%) were called active. The inconclusive results got no clear call from the source; some entries with a clear call stand among them for comparison. Calls follow the shape of the dose curve; as a rule, active = well fitted inhibition curve with a large enough effect; inconclusive = small, poorly fitted or top-dose-only effect; inactive = flat fitted curve, though single readings scatter. No potency is given beside an inconclusive call; the fits are too rough.
Assay: qHTS for Inhibitors of human tyrosyl-DNA phosphodiesterase 1 (TDP1): qHTS in cells in presence of CPT; also: nearly all actives have a fitted effect of over 55% in size
Conditions: chicken DT40 Tdp1-/-;hTDP1 cells + 20 nM CPT, ATP luminescence, 48 h; activity change, negative = growth inhibition: at 46.2 µM (top of the series) unless noted
Outline: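 Chicken DT40 Tdp1-/- cells stably complemented with human TDP1 were seeded at 400 cells/well in medium containing 20 nM camptothecin, exposed to pin-transferred compounds, and grown at 37 °C for at least 48 hr. Viability was read as ATP luminescence.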
% is scaled to controls: 0 for no effect and ±100 for the full control effect; potency is read from the fitted curve at half-maximal effect; tags tell the direction and shape of the fitted curve.

Structure (SMILES) | Potency | activity change, negative = growth inhibition
Cc1nc(C(C)NC2CCN(c3cccc(NC(=O)c4ccncc4)c3)CC2)cs1 (centres undefined) | inconclusive [inhibitor, full curve, poor fit] | –
O=C(NCCCn1ccnc1)c1ccccc1NS(=O)(=O)c1ccc(F)c(F)c1 | active: 15.8 µM | –
c1ccc(C2=Nn3c(nnc3-c3n[nH]c4c3CCC4)SC2)cc1 | inconclusive [inhibitor, single point] | –
Cc1ccccc1Nc1sc(C(=O)c2ccc(F)cc2)c(N)c1C(=O)NCCc1ccccc1 | inconclusive [inhibitor, single point] | –
O=C(NC(c1ccc(F)cc1)c1ccc2ccccc2n1)C1CCN(Cc2cccc(C(F)(F)F)c2)CC1 (centres undefined) | active: 2.91 µM | –
O=C(N1CCc2[nH]c3ccccc3c2C1)C(F)(F)F | – | inconclusive: -18.2% [inhibitor]
COc1ccc(C=C2CCC3C(CCCC34OCCO4)C2=O)cc1 (centres undefined) | inconclusive [inhibitor, single point] | –
Cc1nc2c(c(=O)n1CCC(C)C)c1nc3ccccc3nc1n2CC1CCCO1 (centres undefined) | inconclusive [inhibitor, full curve] | –
CC(=O)Oc1ccc(OC(C)=O)c2c1C1C=CC2CC1 | inconclusive [inhibitor, partial curve, poor fit] | –
Fc1cccc(-c2cc3nc4c(c(N5CCC6(CC5)OCCO6)n3n2)CCCC4)c1 | active: 20.6 µM | –
COc1ccc(-c2cn3c(C)c(C(=O)N4CCN(c5ccccc5)CC4)sc3n2)cc1 | inconclusive [inhibitor, partial curve] | –
O=C(NCc1ccccc1)C1=C[C@H](c2ccc(C(F)(F)F)cc2)C[C@H](OCCCCO)O1 | inconclusive [inhibitor, single point] | –
CCCC(=O)Nc1nnc(SCC(=O)Nc2ccc(OCC)cc2)s1 | inactive | –
Cc1cccc2c1OCC/C2=N\NC(=O)COc1ccccc1 | inconclusive [inhibitor, single point] | –
OC(c1ccc(F)c(F)c1)c1nc(-c2cccc3cccnc23)cs1 (centres undefined) | inconclusive [inhibitor, partial curve] | –
COc1ccc(-c2csc(Nc3ccc(Oc4ccccc4)cc3)n2)cc1 | active: 18.4 µM | –
C=CCOc1ccccc1CN1CCC(Oc2ccc(C(=O)N3CCCC3)cc2)CC1 | inconclusive [inhibitor, single point] | –
Cc1ccc(C(=O)CCS(=O)(=O)c2ccc(F)cc2)cc1 | active: 4.61 µM | –
Cc1ccc(C(C(=O)NC2CCCC2)N(Cc2ccco2)C(=O)CCC(=O)Nc2ccccn2)cc1 (centres undefined) | inconclusive [inhibitor, single point] | –

From PubChem BioAssay AID686979 (National Center for Advancing Translational Sciences (NCATS), 2013)
